Some targets named below: SHP2 C-SH2 domain E139D; SHP2 N-SH2 domain L43F; SHP2 N-SH2 domain T42A; SHP2 N-SH2 domain T52S.
Holding throughout (assay): enrichment score (SH2-bound / input frequency) (ratio); bacterial display of known human phosphotyrosine sites (pTyr-Var adds point mutants) read by sequencing; higher = stronger binding; tyrosines were phosphorylated by kinases first
Holding throughout (conditions): peptide library: Human pTyr

In assay [1] the target is SHP2 C-SH2 domain wild-type.
Assay [2] has as its target SHP2 N-SH2 domain wild-type.

The other results are listed elsewhere or left out. Cut-off read from the data, not from the text of the source: active = 3.2 or more and inactive = the rest. The signal is at background level for most entries.
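Note: displayed peptides selected on beads carrying the immobilized SH2 domain, with library peptides lacking any tyrosine serving as negative controls.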

For DEEIELAYEQVAKAL [CLIC1_HUMAN_233], the enrichment score in the assay with SHP2 C-SH2 domain E139D is inactive: 0.91; in assay [1], inactive: 0.781; with SHP2 N-SH2 domain L43F, inactive: 0.805; in the assay with SHP2 N-SH2 domain T42A, inactive: 0.804; with SHP2 N-SH2 domain T52S it was inactive: 0.816; in assay [2], inactive: 1.19.

On to DWGLAEFYHPGQEAN [CSNK2A1_HUMAN_182_YA], for which the enrichment score in the assay with SHP2 C-SH2 domain E139D was inactive: 0.596; in assay [1], inactive: 0.571; with SHP2 N-SH2 domain L43F, inactive: 0.722; with SHP2 N-SH2 domain T42A, inactive: 0.585; with SHP2 N-SH2 domain T52S it was inactive: 0.682; in assay [2], inactive: 0.658.

In the case of ALRFCGIYGYRLRRK [CSF2RB_HUMAN_466], the enrichment score with SHP2 C-SH2 domain E139D was inactive: 0.599; in assay [1] it was inactive: 0.558; in the assay with SHP2 N-SH2 domain L43F, inactive: 0.532; with SHP2 N-SH2 domain T42A it was inactive: 0.693; with SHP2 N-SH2 domain T52S, inactive: 0.628; in assay [2], inactive: 0.662.

With GMSEEVTYATLTFQD [CL12B_HUMAN_7], the enrichment score in the assay with SHP2 C-SH2 domain E139D was active: 6.61; in assay [1], active: 9.7; with SHP2 N-SH2 domain L43F, active: 11.1; with SHP2 N-SH2 domain T42A it was active: 8.76; in the assay with SHP2 N-SH2 domain T52S it was active: 7.49; in assay [2] it was active: 4.63.

Regarding APGGSDNYGSLSRVT [CTND1_HUMAN_228_YA], the enrichment score with SHP2 C-SH2 domain E139D is inactive: 0.76; in assay [1], inactive: 0.604; with SHP2 N-SH2 domain L43F, inactive: 0.688; with SHP2 N-SH2 domain T42A it was inactive: 0.755; with SHP2 N-SH2 domain T52S, inactive: 0.691; in assay [2] it was inactive: 0.873.

On to KEQNRELYSEGLGAW [CNKSR1_HUMAN_665], for which the enrichment score with SHP2 C-SH2 domain E139D is inactive: 0.888; in assay [1] it was inactive: 0.756; with SHP2 N-SH2 domain L43F, inactive: 0.805; in the assay with SHP2 N-SH2 domain T42A, inactive: 0.626; with SHP2 N-SH2 domain T52S it was inactive: 0.859; in assay [2], inactive: 0.666.

As for AVVNLINYQDDAELA [CTNB1_HUMAN_142], the enrichment score in the assay with SHP2 C-SH2 domain E139D is inactive: 0.705; in assay [1], inactive: 0.676; with SHP2 N-SH2 domain L43F, inactive: 0.722; with SHP2 N-SH2 domain T42A, inactive: 0.738; with SHP2 N-SH2 domain T52S, inactive: 0.62; in assay [2], inactive: 0.791.

In the case of ALRFCGIYGARLRRK [CSF2RB_HUMAN_466_YA], the enrichment score with SHP2 C-SH2 domain E139D was inactive: 0.617; in assay [1] it was inactive: 0.74; in the assay with SHP2 N-SH2 domain L43F it was inactive: 0.696; with SHP2 N-SH2 domain T42A, inactive: 0.751; in the assay with SHP2 N-SH2 domain T52S, inactive: 0.669; in assay [2], inactive: 0.739.

As for TMHHCKRYRSPEPDP [CLK3_HUMAN_155], the enrichment score was inactive: 1.09 with SHP2 C-SH2 domain E139D; inactive: 0.818 in assay [1]; inactive: 1.08 with SHP2 N-SH2 domain L43F; inactive: 1.09 with SHP2 N-SH2 domain T42A; inactive: 0.98 in the assay with SHP2 N-SH2 domain T52S; inactive: 0.983 in assay [2].

For the molecule TAEDNLEYVRTLADF [CRKL_HUMAN_127_YA], the enrichment score in the assay with SHP2 C-SH2 domain E139D is inactive: 0.801; in assay [1], inactive: 0.784; with SHP2 N-SH2 domain L43F, inactive: 0.638; with SHP2 N-SH2 domain T42A, inactive: 0.737; with SHP2 N-SH2 domain T52S, inactive: 1.12; in assay [2], inactive: 0.888.

VSSDAEEYQPPIWKS [CHN2_HUMAN_21]: the enrichment score in the assay with SHP2 C-SH2 domain E139D is inactive: 0.9; in assay [1] it was inactive: 0.682; in the assay with SHP2 N-SH2 domain L43F, inactive: 0.81; with SHP2 N-SH2 domain T42A it was inactive: 0.682; with SHP2 N-SH2 domain T52S it was inactive: 0.848; in assay [2], inactive: 0.718.

DDQRSMGYDDLDAGM [CTND1_HUMAN_291_YA]: the enrichment score in the assay with SHP2 C-SH2 domain E139D was inactive: 0.904; in assay [1], inactive: 0.681; with SHP2 N-SH2 domain L43F, inactive: 0.761; with SHP2 N-SH2 domain T42A it was inactive: 0.72; with SHP2 N-SH2 domain T52S it was inactive: 0.813; in assay [2], inactive: 0.93.

Turning to DTDARHSYEAQRENS [CLK2_HUMAN_99_YA], the enrichment score with SHP2 C-SH2 domain E139D was inactive: 0.867; in assay [1], inactive: 0.711; in the assay with SHP2 N-SH2 domain L43F, inactive: 0.738; with SHP2 N-SH2 domain T42A it was inactive: 0.727; with SHP2 N-SH2 domain T52S, inactive: 0.665; in assay [2], inactive: 0.827.

Regarding AASYGRIYAGGGTGS [CELR3_HUMAN_3051], the enrichment score with SHP2 C-SH2 domain E139D is inactive: 0.593; in assay [1], inactive: 0.305; with SHP2 N-SH2 domain L43F, inactive: 0.381; with SHP2 N-SH2 domain T42A, inactive: 0.337; in the assay with SHP2 N-SH2 domain T52S, inactive: 0.4; in assay [2], inactive: 0.365.

As to GMQDEDGYITLNIKT [CLC1B_HUMAN_7], the enrichment score with SHP2 C-SH2 domain E139D is inactive: 1.87; in assay [1], inactive: 1.55; in the assay with SHP2 N-SH2 domain L43F, inactive: 1.23; in the assay with SHP2 N-SH2 domain T42A, inactive: 1.54; in the assay with SHP2 N-SH2 domain T52S it was inactive: 1.64; in assay [2] it was inactive: 1.77.

As for EEEPDSDYSVIRKTG [CLM8_HUMAN_293], the enrichment score with SHP2 C-SH2 domain E139D is inactive: 1.05; in assay [1] it was inactive: 1; with SHP2 N-SH2 domain L43F, inactive: 0.811; with SHP2 N-SH2 domain T42A, inactive: 0.867; with SHP2 N-SH2 domain T52S it was inactive: 0.892; in assay [2], inactive: 0.976.

For the molecule ASGCRVLYDACPKSL [CELR3_HUMAN_2126], the enrichment score with SHP2 C-SH2 domain E139D was inactive: 0.799; in assay [1], inactive: 0.966; with SHP2 N-SH2 domain L43F, inactive: 0.785; with SHP2 N-SH2 domain T42A, inactive: 1.03; in the assay with SHP2 N-SH2 domain T52S it was inactive: 0.82; in assay [2], inactive: 0.784.

Consider KALKQQDYLSLPPWE [CSF2RB_HUMAN_882], for which the enrichment score was inactive: 0.756 in the assay with SHP2 C-SH2 domain E139D; inactive: 0.663 in assay [1]; inactive: 0.764 with SHP2 N-SH2 domain L43F; inactive: 0.754 with SHP2 N-SH2 domain T42A; inactive: 0.91 in the assay with SHP2 N-SH2 domain T52S; inactive: 0.714 in assay [2].

Source of the values: the supplement of paper PMC10369915.
